# Where a name gives a salt, the structure may show the parent alone. ± gives the standard deviation of the averaged measurements. Over roughly 3,200 compounds, “nuclei count (viability) relative to DMSO” has its median near 99; the lowest 2% begin near 16. The list shows a part of the results.
# System: U2OS
# Test: nuclei count (viability) relative to DMSO (% of DMSO); higher = more viable cells
# Details: 10 µM; 24 h
# Experimental: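 Primary image-based screen in U2OS cells: compounds at 10 uM for 24 h, then a 1 h o-propargyl-puromycin (OPP) pulse, click labelling, and high-throughput microscopy. Mean cytoplasmic OPP intensity and nuclei count were normalised to DMSO wells within each plate (DMSO = 100) and averaged over triplicate plates.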
row,SMILES,nuclei count
1,Cc1cccc(Nc2ccccc2C(=O)O)c1C [Mefenamic acid],89.6
2,CCOc1cc(N)c(Cl)cc1C(=O)NCC1CN(Cc2ccc(F)cc2)CCO1 (centres undefined) [Mosapride citrate],104
3,C[n+]1ccccc1/C=N/O [Pralidoxime chloride],92.8
4,O=C1NC(=O)/C(=C/c2cccc(C(F)(F)F)c2)S1,106 ± 9.4
5,Cc1cc(O)c2c(c1)C(=O)c1cc(O)cc(O)c1C2=O [Emodin],105
6,Cn1cc(-c2ccc3nnc(Sc4ccc5ncccc5c4)n3n2)cn1,104
7,Clc1ccc(Nc2nnc(Cc3ccncc3)c3ccccc23)cc1 [Vatalanib dihydrochloride (PTK787)],87
8,Clc1ccc(Nc2nnc(Cc3ccncc3)c3ccccc23)cc1 [Vatalanib],90.3
9,COC(=O)c1ccc2c(C(=Nc3ccc(N(C)C(=O)CN4CCN(C)CC4)cc3)c3ccccc3)c(O)[nH]c2c1 [BIBF1120 (Vargatef)],103
10,CCOC(=O)[C@H](CCc1ccccc1)N[C@@H](C)C(=O)N1Cc2cc(OC)c(OC)cc2C[C@H]1C(=O)O [Moexipril hydrochloride],101
11,CCOC(=O)[C@H](CCc1ccccc1)N[C@@H](C)C(=O)N1Cc2cc(OC)c(OC)cc2C[C@H]1C(=O)O [Moexipril HCl],97.6
12,CN1CCC(OC(c2ccccc2)c2ccccc2)CC1 [Diphenylpyraline hydrochloride],97.5
13,FC(F)(F)c1cccc(-c2noc(-c3cc(-c4ccccc4)c(C(F)(F)F)s3)n2)c1,98.2
14,C/C=C1\[C@H]2C=C(C)C[C@]1(N)c1ccc(=O)[nH]c1C2 [(-)-Huperzine A],96.9
15,CN1CCN(C2CCN(C(=O)Nc3cc(Oc4ccc(NC(=O)C5(C(=O)Nc6ccc(F)cc6)CC5)c(F)c4)ccn3)CC2)CC1 [Golvatinib (E7050)],75.5 ± 3.9
16,Cc1cccc(C(=O)NCN2CCN(c3ccccc3C#N)CC2)c1,88.6
17,CN(C)CCCN1c2ccccc2CCc2ccccc21 [Imipramine hydrochloride],87.2
18,C[C@H]1COc2c(N3CCN(C)CC3)c(F)cc3c(=O)c(C(=O)O)cn1c23 [Levofloxacin (Levaquin)],86
19,NC(CO)C(=O)NNCc1ccc(O)c(O)c1O (centres undefined) [Benserazide hydrochloride],100
20,CCCC(=O)OCOC(=O)C1=C(C)NC(C)=C(C(=O)OC)C1c1cccc(Cl)c1Cl (centres undefined) [Cleviprex (Clevidipine)],97.4
21,CCN(CC)CCCCN1c2ccccc2Oc2ccc(Cl)cc21 [10-DEBC hydrochloride],93.7
22,NCCC[C@H](N)CC(=O)N[C@H]1CNC(=O)[C@H]([C@H]2C[C@H](O)NC(N)=N2)NC(=O)/C(=C/NC(N)=O)NC(=O)[C@H](CO)NC(=O)[C@H](CO)NC1=O [Viomycin sulfate],107
23,O=c1[nH]cnc2c1ncn2[C@H]1CC[C@@H](CO)O1 [Didanosine],88
24,CN1CCN(c2ccc(OC(F)(F)F)c(Nc3ncc4c(n3)-c3c(c(C(N)=O)nn3CCO)CC4)c2)CC1,25.3
25,Nc1nc(O)c2ncn(CCC(CO)CO)c2n1 [Penciclovir],104
26,Fc1ccc([C@@H]2CCNC[C@H]2COc2ccc3c(c2)OCO3)cc1 [Paroxetine Hydrochloride],91.4
27,Fc1ccc([C@@H]2CCNC[C@H]2COc2ccc3c(c2)OCO3)cc1 [Paroxetine maleate],97.8

row,SMILES,nuclei count
1,NCC[C@H](O)C(=O)N[C@@H]1C[C@H](N)[C@@H](O[C@H]2O[C@H](CN)[C@@H](O)[C@H](O)[C@H]2O)[C@H](O)[C@H]1O[C@H]1O[C@H](CO)[C@@H](O)[C@H](N)[C@H]1O [Amikacin sulfate],98.7
2,NCC[C@H](O)C(=O)N[C@@H]1C[C@H](N)[C@@H](O[C@H]2O[C@H](CN)[C@@H](O)[C@H](O)[C@H]2O)[C@H](O)[C@H]1O[C@H]1O[C@H](CO)[C@@H](O)[C@H](N)[C@H]1O [Amikacin hydrate],97.8 ± 8.5
3,CCCCCCN(CCCCCC)C(=O)Cc1c(-c2ccc(Cl)cc2)[nH]c2ccc(Cl)cc12,78.7
4,COc1ccc(CCN(C)CCCOc2ccc(S(=O)(=O)c3c(C(C)C)c4ccccc4n3C)cc2)cc1OC,27.4
5,O=C1c2cccc3c2[C@H](CCC3)CN1[C@@H]1CN2CCC1CC2 [Palonosetron HCl],101
6,O=C(O)CSCC(=O)NC1CCSC1=O (centres undefined) [Erdosteine],95.4
7,Cc1cc2c(F)c(Oc3ncnn4cc(OC[C@@H](C)O)c(C)c34)ccc2[nH]1,89.3 ± 14
8,COc1cc(/C=C/C(=O)CC(=O)/C=C/c2ccc(O)c(OC)c2)ccc1O [Curcumin],58.5 ± 14
9,CCC(=O)NC1CCc2cccc(OC)c2C1 (centres undefined),100
10,OCCN1C[C@H](O)[C@@H](O)[C@H](O)[C@H]1CO [Miglitol],92.9
11,OCCN1C[C@H](O)[C@@H](O)[C@H](O)[C@H]1CO [Miglitol (Glyset)],100
12,Cc1c(CCOc2ccc(C(=O)O)cc2)c2cc(Cl)ccc2n1C(c1ccccc1)c1ccccc1,103
13,S=C(NCc1ccc2c(c1)OCO2)N1CCN(c2ncnc3c2oc2ccccc23)CC1 [Amuvatinib (MP-470)],96
14,N[C@@H](Cc1cc(-c2ccc(Cl)cc2Cl)cc(CP(=O)(O)O)c1O)C(=O)O,75.8
15,CC1(C)CCC2=C(O1)c1ccccc1C(=O)C2=O,47.5
16,CC(=O)OCC[N+](C)(C)C [Acetylcholine chloride],93.9
17,C/C(=N\NC(=O)C1C(=O)NCC1c1ccccc1)c1cccc(Br)c1 (centres undefined),107
18,NCCCCCCCCCCNS(=O)(=O)c1cccc2c(Cl)cccc12 [A-7 hydrochloride],81.3
19,Cn1cnc([N+](=O)[O-])c1Sc1ncnc2[nH]cnc12 [Azathioprine],103
20,"Cn1cnc([N+](=O)[O-])c1Sc1ncnc2[nH]cnc12 [Azathioprine (Azasan, Imuran)]",97.5
21,CC(=O)Oc1cc2c(s1)CCN(C(C(=O)C1CC1)c1ccccc1F)C2 (centres undefined) [Prasugrel (Effient)],98.4
22,CC(C)C(=O)Nc1ccc([N+](=O)[O-])c(C(F)(F)F)c1 [Flutamide],94.2
23,O=C(/C=C/N1C[C@H]2C[C@@H]1CN2c1ccccn1)c1ccccc1O,103
24,CC1COc2c(N3CCN(C)CC3)c(F)cc3c(=O)c(C(=O)O)cn1c23 (centres undefined) [Ofloxacin],105
25,O=C(O)CCCC[C@@H]1SC[C@@H]2NC(=O)N[C@@H]21 [Biotin],105
26,O=C(O)CCCC[C@@H]1SC[C@@H]2NC(=O)N[C@@H]21 [Biotin (Vitamin B7)],106
27,COCC(=O)Nc1c(I)c(C(=O)NCC(O)CO)c(I)c(C(=O)N(C)CC(O)CO)c1I (centres undefined) [Iopromide],106

row,SMILES,nuclei count
1,"C[C@@]1(O)CCOC(=O)C1 [Mevalonic-D, L acid lactone]",104
2,CCOC(=O)Nc1ccc(NCc2ccc(F)cc2)nc1N [Flupirtine maleate],98
3,COC(=O)C1=C(C)NC(C)=C(C(=O)OC(C)C)C1c1cccc2nonc12 (centres undefined) [Isradipine],102 ± 2.5
4,O=C1OC(OC(=O)c2cccnc2Nc2cccc(C(F)(F)F)c2)c2ccccc21 (centres undefined) [Talniflumate],84
5,Cn1c(Nc2ccc(C(F)(F)F)cc2)nc2cc(Oc3ccnc(-c4ncc(C(F)(F)F)[nH]4)c3)ccc21,94.8
6,COc1cc(OC)c(C(=O)CCCCN2CCC3(CC2)NC(=O)NC3=O)cc1NS(=O)(=O)c1ccc(C(F)(F)F)cc1,53.6
7,C[C@H](CCC(=O)O)[C@H]1CC[C@H]2[C@@H]3CC[C@@H]4C[C@H](O)CC[C@]4(C)[C@H]3CC[C@]12C [Lithocholic acid],99.5 ± 6.5
8,N[C@@H](CSCCCO)C(=O)O [Fudosteine],110
9,CC(=O)SCC(Cc1ccccc1)C(=O)NCC(=O)OCc1ccccc1 (centres undefined) [Racecadotril],96.8
10,Nc1nc2[nH]cc(CCc3ccc(C(=O)N[C@@H](CCC(=O)O)C(=O)O)cc3)c2c(=O)[nH]1 [Pemetrexed (Alimta)],75.8
11,CCN1CCN(Cc2ccc(Nc3ncc(F)c(-c4cc(F)c5nc(C)n(C(C)C)c5c4)n3)nc2)CC1,37.8
12,COc1ccc(C(=O)c2ccccc2O)c(O)c1 [Dioxybenzone],97.3
13,CC(C)(C)NC[C@H](O)COc1ccccc1C1CCCC1 [Penbutolol sulfate],108
14,CC(C)Cc1ccc(C(C)C(=O)O)cc1 (centres undefined) [Ibuprofen Lysine (NeoProfen)],101
15,CN(C(=O)c1c(O)c2ccccc2n(C)c1=O)c1ccccc1 [Linomide],87.9
16,O=C(O)C1(C(=O)O)CCC1.[NH2-].[NH2-].[Pt+2] [Carboplatin],100
17,COc1ccc(CC(=O)NC(/N=C(\NC#N)Nc2cccc3ncccc23)C(C)(C)C)cc1OC (centres undefined),103
18,O=c1c(O)c(-c2ccc(O)c(O)c2)oc2cc(O)cc(O)c12 [Quercetin (Sophoretin)],83.8
19,O=c1c(O)c(-c2ccc(O)c(O)c2)oc2cc(O)cc(O)c12 [Quercetin],90.7 ± 6.4
20,O=C(Nc1ccc([N+](=O)[O-])cc1O)Nc1ccccc1Br,23.5
21,Cc1cnc(C(=O)O)c[n+]1[O-] [Acipimox],111
22,CC(=O)Oc1ccccc1C(=O)Oc1cccc(CO[N+](=O)[O-])c1,87.8
23,COc1ccc2cccc(N3CCN(CCNC(=O)c4ccc(F)cc4)CC3)c2c1,104
24,O=C(O)[C@H]1/C(=C/CO)O[C@@H]2CC(=O)N21 [Clavulanate potassium salt],107
25,O=C(OCCOCCO)c1ccccc1Nc1cccc(C(F)(F)F)c1 [Etofenamate],89.4

# From the supplement of paper PMC8183993
